According to PubChem BioAssay AID1347428 (National Center for Advancing Translational Sciences (NCATS), 2020):
The whole screen tested about 91,000 compounds, of which about 290 (0.32%) were called active. Inconclusive means that the source gave no clear call. Such entries were picked first, then a sample of the others. The call rests on the fitted dose curve; in most records, active means well fitted inhibition curve with a large enough effect; inconclusive means small, poorly fitted or top-dose-only effect; inactive means no such curve, though single readings can be large or run the other way. Potencies beside an inconclusive call are fits to weak or partial responses and may not hold up.

Biological target: Single-stranded DNA cytosine deaminase (Homo sapiens) (UniProt Q9GZX7)
Assay: Primary qHTS assay for inhibitors of Activation Induced Cytidine Deaminase (AID): AID signal; further: nearly all actives have a fitted effect of over 25% in size
Conditions: AID deamination FRET fluorescence, UDG-coupled, 4 h; activity change, negative = inhibition: at 115 µM (top of the series)
On the % scale 0 is the no-effect control and ±100 the full control effect; potency means the concentration at half of the fitted maximal effect; tags describe the fitted curve by direction and shape.

Sequence of UniProt Q9GZX7 (Q9GZX7 whole entry, looked up): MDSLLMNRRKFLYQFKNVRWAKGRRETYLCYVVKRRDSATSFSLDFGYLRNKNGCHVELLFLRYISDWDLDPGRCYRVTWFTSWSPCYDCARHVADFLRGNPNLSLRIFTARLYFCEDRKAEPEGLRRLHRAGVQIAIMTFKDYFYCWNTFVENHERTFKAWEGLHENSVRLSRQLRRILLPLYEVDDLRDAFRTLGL

SMILES	Potency	activity change, negative = inhibition
CCCCN(CCCC)c1nc(-c2ccncc2)nc2ccccc12	inconclusive: 31.6 µM [inhibitor, partial curve, poor fit]	
O=C(Cn1nnc(-c2cccc(C(F)(F)F)c2)n1)N1CCCC1c1ccc2c(c1)OCCO2 (stereo unspecified)		inactive: -8.56%
Cc1ccccc1Nc1nn2c(=O)c3ccc(C(=O)NCc4ccccc4)cc3nc2s1	inconclusive: 100 µM [inhibitor, single point]	
COc1ccc(Nc2nc(Nc3ccccc3)c3nccnc3n2)cc1Cl	inconclusive: 50.1 µM [inhibitor, partial curve, poor fit]	
CCc1nc2c(cnn2-c2ccc(C)cc2)c(=O)n1Cc1ccccc1	inconclusive: 89.1 µM [inhibitor, single point]	
COc1ccc2c(c1)CCc1sc(NC(=O)c3cccc(Br)c3)nc1-2		inactive: 43.1%
COc1ccccc1NC(=O)CSC1=Nc2ccccc2C2=NC(Cc3ccccc3)C(=O)N12 (stereo unspecified)	inconclusive: 89.1 µM [inhibitor, single point]	
CCOc1ccc(S(=O)(=O)N2CCN(c3cccc(C(F)(F)F)c3)CC2)cc1OCC	inconclusive: 22.4 µM [inhibitor, single point]	
Cc1ccc2cc(/C=C/C(=O)c3c(C)coc3C)c(Cl)nc2c1		inactive: 25.8%
CCCOc1cccc(C(=O)N(Cc2sccc2C)C2CCS(=O)(=O)C2)c1 (stereo unspecified)	inconclusive: 56.2 µM [inhibitor, partial curve, poor fit]	
CCC(=O)Nc1ccc2nc(SCCOc3ccc(C)cc3OC)sc2c1		inactive: 6.6%
O=C(c1ccc2c(c1)OCO2)c1cn(Cc2ccc(Cl)cc2)c2ccc(F)cc2c1=O	inconclusive: 39.8 µM [inhibitor, partial curve, poor fit]	
Cc1cc(C(=O)OCC(=O)Nc2cc(F)ccc2F)c2ccccc2n1		inactive: 9.96%
O=C(Nc1ccc(Cl)c(C(=O)NC2CCCCC2)c1)c1ccncc1		inactive: -7.81%
Cc1cccc(N(C)S(=O)(=O)c2nnc(NC(=O)c3cccs3)s2)c1	inconclusive: 44.7 µM [inhibitor, partial curve]	
CC1CCc2nc3ccccc3c(C(=O)Nc3ccccc3F)c2C1 (stereo unspecified)		inactive: 15.9%
Nc1nc(SCc2nc(-c3cccc(C(F)(F)F)c3)no2)n[nH]1		inactive: -6.5%
Cc1cc(C(F)(F)F)c(C#N)c(SCc2cccnc2)n1		inactive: -11.5%
CCCCSCC(O)CSc1nc(-c2ccccc2)cc(-c2ccc(C)cc2)c1C#N (stereo unspecified)		inactive: -8.78%
CNC(=O)c1ccc2c(c1)N(Cc1cc(C)ccc1C)C(=O)c1ccccc1S2	inconclusive: 44.7 µM [inhibitor, partial curve, poor fit]	
Cc1ccc(S(=O)(=O)Cc2nc(-c3ccc(C(=O)NCCN4CCCCCC4)cc3)oc2C)cc1	inconclusive: 79.4 µM [inhibitor, partial curve, poor fit]	
COc1ccc(-c2noc(CSc3nnc(C)n3-c3cccc(C)c3)n2)cc1	inconclusive: 50.1 µM [inhibitor, partial curve, poor fit]	

SMILES	Potency	activity change, negative = inhibition
CCc1ccc(CNC(=O)Cn2nc(-c3ccc(C)cc3)ccc2=O)cc1	inconclusive: 28.2 µM [inhibitor, partial curve, poor fit]	
Cc1ccc(Nc2sc(C(=O)c3ccccc3)c(N)c2S(=O)(=O)c2ccccc2)cc1Cl	inconclusive: 39.8 µM [inhibitor, partial curve, poor fit]	
Fc1ccc(-n2ncc3c(Nc4ccc5c(c4)OCCO5)ncnc32)cc1		inactive: -3.5%
CCn1cc(C(=O)NCCc2ccc(OC)c(OC)c2)c(=O)c2cc(S(=O)(=O)N(C)C3CCCCC3)ccc21	active: 15.8 µM	
COc1ccc(-c2noc(CN(C(=O)C(C)Oc3ccc(C)cc3)C(C)C)n2)cc1 (stereo unspecified)	inconclusive: 50.1 µM [inhibitor, partial curve, poor fit]	
O=C(NCc1ccccc1)c1ccc2c(c1)CCN2S(=O)(=O)c1ccc(Cl)cc1	inconclusive: 112 µM [inhibitor, full curve]	
Cc1ccc(Nc2nc(Nc3ccc(F)cc3)nc3nccnc23)cc1Cl	inconclusive: 14.1 µM [inhibitor, full curve, poor fit]	
CC1CCCN(CCCNC(=O)c2ccc3c(c2)N(Cc2ccc(Cl)cc2)C(=O)c2ccccc2S3(=O)=O)C1 (stereo unspecified)	inconclusive: 56.2 µM [inhibitor, partial curve, poor fit]	
Cc1cc(OC(C)C(=O)N(Cc2ccc(N(C)C)cc2)Cc2ccco2)ccc1Cl (stereo unspecified)	inconclusive: 17.8 µM [inhibitor, full curve, poor fit]	
CCn1nc(C)c2c(-c3ccccc3)cc(=O)n(C(C)C(=O)NCc3ccccc3OC)c21 (stereo unspecified)	inconclusive: 17.8 µM [inhibitor, full curve, poor fit]	
CCOC(=O)N1CCN(Cc2nc3cc(NC(=O)c4cccc(C)c4)ccc3n2C(C)C)CC1	inconclusive: 31.6 µM [inhibitor, partial curve]	
c1ccc(-c2cn3c4ccccc4n(CCN4CCCCC4)c3n2)cc1	inconclusive: 56.2 µM [inhibitor, partial curve, poor fit]	
COc1cc(OC)cc(-c2nc3nc(C)c(CCC(=O)Nc4ccc(C)cc4C)c(C)n3n2)c1	inconclusive: 28.2 µM [inhibitor, single point]	
Cc1ccccc1/C=C(/C#N)c1nc2ccccc2s1		inactive: 0.0604%
O=C(NCCC1=CCCCC1)C1CCN(C(=O)N2CCOc3ccc(Cl)cc32)CC1	inconclusive: 56.2 µM [inhibitor, partial curve, poor fit]	
Cc1cc(C)cc(C(=O)NCC(c2ccc(N(C)C)cc2)N2CCCC2)c1 (stereo unspecified)	inconclusive: 100 µM [inhibitor, single point]	
O=C(CCc1ccccc1)N1N=C(c2ccccc2)CC1c1ccc2nccnc2c1 (stereo unspecified)	inconclusive: 79.4 µM [inhibitor, partial curve, poor fit]	
O=C(CC12CC3CC(CC(Br)(C3)C1)C2)NCCc1ccccc1		inactive: -0.445%
Nc1nc(SCC(=O)NCc2ccccc2Cl)n[nH]1		inactive: 1.91%
COc1cccc(C(=O)Nc2ccc3oc(-c4cccc(Br)c4)nc3c2)c1		inactive: -1.65%
Cc1ccc(NC(=O)N2CCN(c3cc(-c4noc(C)n4)ccc3C)CC2)c(F)c1	inconclusive: 11.2 µM [inhibitor, full curve, poor fit]	
Cc1ccc(-c2nc(C(=O)NCc3ccccc3Cl)c3n2CCCCC3)cc1	inconclusive: 39.8 µM [inhibitor, single point]	

SMILES	Potency	activity change, negative = inhibition
O=C(Nc1cccc(-c2nc3ccccc3o2)c1)C(F)(F)F	inconclusive: 20 µM [inhibitor, partial curve, poor fit]	
CCC(C)Nc1nc(-c2ccc([N+](=O)[O-])cc2)c(C(=O)Nc2ccccc2)s1 (stereo unspecified)		inactive: -2.01%
Cc1cc(-c2ccccc2)n2nc(-c3ccccc3)cc2n1	inconclusive: 39.8 µM [inhibitor, partial curve, poor fit]	
CCCCC(=O)N1CCc2cc(OC)c(OC)cc2C1COc1ccc(OC)cc1 (stereo unspecified)	inconclusive: 12.6 µM [inhibitor, partial curve, poor fit]	
CCNCc1ccccc1C(F)(F)F		inactive: -1.7%
COc1ccccc1-c1noc(-c2ccc(NC3CCCC3)c([N+](=O)[O-])c2)n1	inconclusive: 31.6 µM [inhibitor, partial curve, poor fit]	
Cc1ccc(Nc2nnc(-c3ccc(C)c(S(=O)(=O)N4CCOCC4)c3)c3ccccc23)cc1	inconclusive: 28.2 µM [inhibitor, single point]	
COc1cc(SC)ccc1C(=O)O		inactive: -3.25%
Cc1cc(=O)n(Cc2ccccc2)c2c1c(C)nn2C		inactive: -7.17%
COc1ccc(-n2c(-c3ccco3)nc3c(cnn3-c3ccccc3Cl)c2=O)cc1	inconclusive: 28.2 µM [inhibitor, partial curve, poor fit]	
Cc1nn(C)c2c1c(-c1ccccc1)cc(=O)n2CC(=O)NC(C)c1ccccc1 (stereo unspecified)	inconclusive: 89.1 µM [inhibitor, single point]	
CC1CCN(c2nn3c(=O)c(C(=O)NC(C)C)cnc3s2)CC1		inactive: 6.18%
Cc1ccc2oc(C(=O)Nc3ccc(C(N)=O)cc3)cc(=O)c2c1		inactive: -6.49%
CN1CCN(c2ccc(NC(=O)c3cccc(S(=O)(=O)NCc4ccco4)c3)cc2)CC1		inactive: 22.7%
NC(=O)c1cccc(O)c1		inactive: -3.56%
COC(=O)c1ccc2c(=O)n(CCCCCC(=O)N3CCN(c4cc(C)ccc4C)CC3)c(=O)[nH]c2c1	inconclusive: 11.2 µM [inhibitor, full curve, poor fit]	
CCc1ccccc1NC(=O)c1ccc(Cn2nc(N3CCN(c4ccccc4)CC3)ccc2=O)o1	inconclusive: 79.4 µM [inhibitor, partial curve, poor fit]	
Cc1cc(=O)n(Cc2ccccc2)c2c1c(C)nn2-c1ccccc1	inconclusive: 63.1 µM [inhibitor, partial curve, poor fit]	
Cc1ccc(NC(=O)Nc2cn(C)c(=O)c3ccccc23)c(Cl)c1		inactive: 78.9%
Cc1ccc(C2C=C(c3ccccc3)Nc3nc(NS(=O)(=O)c4ccc(C)cc4)nn32)cc1 (stereo unspecified)	inconclusive: 79.4 µM [inhibitor, partial curve, poor fit]	
CCCn1c2ccccc2c2cnn(CC(=O)N(CC)c3cc(C)ccc3C)c(=O)c21	active: 35.5 µM	
Cn1c(=O)c(=O)n(C)c2cc(N3CCCCC3)c(NS(=O)(=O)c3ccc(C(C)(C)C)cc3)cc21	inconclusive: 39.8 µM [inhibitor, partial curve]	
